Reference: the supplement of paper PMC4604168 (melanoma cell lines)
Some of the results follow. Most values come without repeats; read them as rough.

Key:
Test in all cases: cell count relative to DMSO control; melanoma cells; higher = more viable cells
Details in all cases: library dose: standard library concentration; 72 h
[1] = tested on: SkMel28
[2] = tested on: SkMel2
[3] = tested on: SkMel30
[4] = tested on: SkMel5
[5] = tested on: UACC257
[6] = tested on: UACC62
[7] = tested on: WM115
[8] = tested on: WM1716
[9] = tested on: WM3526
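Further: cells treated in 1,536-well plates, then fixed and DAPI-stained, with nuclei counted from automated high-throughput microscope images.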

SMILES | cell count [1] | cell count [2] | cell count [3] | cell count [4] | cell count [5] | cell count [6] | cell count [7] | cell count [8] | cell count [9]
CS(=O)(=O)CCNCc1ccc(-c2ccc3ncnc(Nc4ccc(OCc5cccc(F)c5)c(Cl)c4)c3c2)o1 [lapatinib] + O=C(Nc1ccccc1)c1cc([N+](=O)[O-])ccc1Cl [GW9662] (first compound 4 µM, partner dose 10 µM) | 74.4% | 88.8% | 91.2% | 59.5% | 84.2% | 47.9% | 69.3% | 83.9% | 74.1%
C[C@@H](Oc1cc(-c2cnn(C3CCNCC3)c2)cnc1N)c1c(Cl)ccc(F)c1Cl [Crizotinib] + Cc1cc([N+](=O)[O-])ccc1NS(=O)(=O)c1cc(Cl)ccc1Cl [FH535] (first compound 1 µM, partner dose 5 µM) | 43.1% | 67.5% | 83.6% | 54.3% | 53.8% | 72.9% | 43.6% | 66.4% | 60.7%
C[C@@H](Oc1cc(-c2cnn(C3CCNCC3)c2)cnc1N)c1c(Cl)ccc(F)c1Cl [Crizotinib] + Oc1cc(-c2nc(-c3ccccc3)[nH]c2-c2ccncc2)ccc1Cl [L779450] (first compound 1 µM, partner dose 1 µM) | 33% | 17.4% | 86.2% | 55.7% | 77% | 60.1% | 33.8% | 60.6% | 46.9%
C=CCNC1=C2C[C@@H](C)C[C@H](OC)[C@H](O)[C@@H](C)/C=C(\C)[C@H](OC(N)=O)[C@@H](OC)/C=C\C=C(/C)C(=O)NC(=CC1=O)C2=O [Tanespimycin] + O=S(=O)(c1ccccc1)N(CC(F)(F)F)c1ccc(C(O)(C(F)(F)F)C(F)(F)F)cc1 [T0901317] (first compound 0.01 µM, partner dose 7 µM) | 46.1% | 82.2% | 108% | 63.2% | 77.9% | 69.5% | 29.2% | 77.9% | 66.4%
C[C@@H](Oc1cc(-c2cnn(C3CCNCC3)c2)cnc1N)c1c(Cl)ccc(F)c1Cl [Crizotinib] + CC(C)CCN1c2nc(Nc3cc(F)c(O)c(F)c3)ncc2N(C)C(=O)C1C [BID1870] (first compound 1 µM, partner dose 1 µM) | 71.9% | 72.8% | 85.1% | 68.5% | 80.8% | 77.4% | 91.8% | 84.7% | 57.8%
CNC(=O)c1cc(Oc2ccc(NC(=O)Nc3ccc(Cl)c(C(F)(F)F)c3)cc2)ccn1 [sorafenib] + O=C(Nc1ccccc1)c1cc([N+](=O)[O-])ccc1Cl [GW9662] (first compound 2 µM, partner dose 10 µM) | 85.8% | 99.7% | 99.1% | 81.5% | 94.4% | 77% | 83.8% | 102% | 100%
C[C@@H](Oc1cc(-c2cnn(C3CCNCC3)c2)cnc1N)c1c(Cl)ccc(F)c1Cl [Crizotinib] + Cn1cc(/C=C2\C(=O)Nc3cccnc32)c2ccccc21 [GW441756] (first compound 1 µM, partner dose 2 µM) | 62.2% | 113% | 102% | 66.7% | 88.7% | 87.7% | 79.8% | 102% | 108%
CNC(=O)c1cc(Oc2ccc(NC(=O)Nc3ccc(Cl)c(C(F)(F)F)c3)cc2)ccn1 [sorafenib] + O=S(=O)(c1ccccc1)N(CC(F)(F)F)c1ccc(C(O)(C(F)(F)F)C(F)(F)F)cc1 [T0901317] (first compound 2 µM, partner dose 7 µM) | 92.4% | 104% | 79.2% | 71.4% | 96.3% | 72.2% | 95.4% | 99.9% | 84.1%
CN1CCN(c2ccc3nc(-c4c(N)c5c(F)cccc5[nH]c4=O)[nH]c3c2)CC1 [Dovitinib] + COc1ccc(COc2ccc(Cc3cnc(N)nc3N)cc2OC)cc1 [GW2580] (first compound 0.5 µM, partner dose 5 µM) | 56.2% | 53.3% | 86.2% | 53.2% | 66.3% | 68.6% | 59.1% | 103% | 78%
CNC(=O)c1cc(Oc2ccc(NC(=O)Nc3ccc(Cl)c(C(F)(F)F)c3)cc2)ccn1 [sorafenib] + COc1ccc(-c2ccc3c(N4CCOCC4)nc(N4C[C@@H](C)O[C@@H](C)C4)nc3n2)cc1CO [KU0063794] (first compound 2 µM, partner dose 0.1 µM) | 62.1% | 68.7% | 95% | 54.7% | 82.7% | 99.1% | 75.7% | 61.3% | 69.7%
C=CCNC1=C2C[C@@H](C)C[C@H](OC)[C@H](O)[C@@H](C)/C=C(\C)[C@H](OC(N)=O)[C@@H](OC)/C=C\C=C(/C)C(=O)NC(=CC1=O)C2=O [Tanespimycin] + CC(C)CCN1c2nc(Nc3cc(F)c(O)c(F)c3)ncc2N(C)C(=O)C1C [BID1870] (first compound 0.01 µM, partner dose 1 µM) | 27.8% | 54.8% | 85.6% | 43.3% | 90.8% | 58.4% | 29.7% | 51.6% | 50.1%
C=CCNC1=C2C[C@@H](C)C[C@H](OC)[C@H](O)[C@@H](C)/C=C(\C)[C@H](OC(N)=O)[C@@H](OC)/C=C\C=C(/C)C(=O)NC(=CC1=O)C2=O [Tanespimycin] + COc1cc2ncnc(Nc3ccc(Oc4ccccc4)cc3)c2cc1OC [SrcI1] (first compound 0.01 µM, partner dose 10 µM) | 61.1% | 111% | 89% | 68.5% | 89.5% | 44.8% | 24.6% | 78% | 59.5%
CS(=O)(=O)CCNCc1ccc(-c2ccc3ncnc(Nc4ccc(OCc5cccc(F)c5)c(Cl)c4)c3c2)o1 [lapatinib] + Cc1cc([N+](=O)[O-])ccc1NS(=O)(=O)c1cc(Cl)ccc1Cl [FH535] (first compound 4 µM, partner dose 5 µM) | 45.1% | 79.2% | 72.1% | 39.1% | 63.2% | 56.9% | 73.8% | 64.3% | 62.1%
CS(=O)(=O)CCNCc1ccc(-c2ccc3ncnc(Nc4ccc(OCc5cccc(F)c5)c(Cl)c4)c3c2)o1 [lapatinib] + CCN(CC)CCCCNc1ncc2cc(-c3cc(OC)cc(OC)c3)c(NC(=O)NC(C)(C)C)nc2n1 [PD173074] (first compound 4 µM, partner dose 0.5 µM) | 67.1% | 67.7% | 66.4% | 53.9% | 105% | 59.5% | 81% | 87.7% | 67.3%
CNC(=O)c1cc(Oc2ccc(NC(=O)Nc3ccc(Cl)c(C(F)(F)F)c3)cc2)ccn1 [sorafenib] + O=c1cc(-c2cccc3c2Sc2ccccc2S3)oc(N2CCOCC2)c1 [KU55933] (first compound 2 µM, partner dose 5 µM) | 86.4% | 77.6% | 98.4% | 82.9% | 79.8% | 89.2% | 88.9% | 94.9% | 60.4%
CNC(=O)c1cc(Oc2ccc(NC(=O)Nc3ccc(Cl)c(C(F)(F)F)c3)cc2)ccn1 [sorafenib] + COC(=O)c1sccc1S(=O)(=O)Nc1ccc(Nc2ccccc2)cc1OC [GSK0660] (first compound 2 µM, partner dose 5 µM) | 70.5% | 68.1% | 87.3% | 73.1% | 74.5% | 76.2% | 96.6% | 94.8% | 73.2%
CNC(=O)c1cc(Oc2ccc(NC(=O)Nc3ccc(Cl)c(C(F)(F)F)c3)cc2)ccn1 [sorafenib] + CC(C)CCN1c2nc(Nc3cc(F)c(O)c(F)c3)ncc2N(C)C(=O)C1C [BID1870] (first compound 2 µM, partner dose 1 µM) | 62.8% | – | 92.6% | 65.3% | 98.3% | 80.4% | 83.3% | 105% | 69.2%
CS(=O)(=O)CCNCc1ccc(-c2ccc3ncnc(Nc4ccc(OCc5cccc(F)c5)c(Cl)c4)c3c2)o1 [lapatinib] + COC(=O)c1sccc1S(=O)(=O)Nc1ccc(Nc2ccccc2)cc1OC [GSK0660] (first compound 4 µM, partner dose 5 µM) | 62.1% | 87.2% | 69.6% | 55% | 81.9% | 51.4% | 96.8% | 82.9% | 74.6%
